# Test results as given in ChEMBL document CHEMBL4888484, “Replenishing the malaria drug discovery pipeline: Screening and hit evaluation of the MMV Hit Generation Library 1 (HGL1) against asexual blood stage Plasmodium falciparum ,using a nano luciferase reporter read-out” (2022).
# The whole screen tested about 150,000 compounds, of which about 540 (0.36%) showed an effect of 50% or more. This is one part of the list.
# System: Plasmodium falciparum
# Test: Primary screen in NF54 nanoGlo assay, in single point, at 2uM, 72h; a lower Z score goes with more inhibition
# Assay type: functional, Erythrocyte
# Details: timepoint 72 hour
Structure (SMILES),% Inhibition [%],Z score
Cc1nnc(OCC2CC(F)(F)C2)s1,-12,1.73
Cc1cnn(C2CCCC2)c1NC(=O)CN1CCCN(C)CC1,-6,1.09
COc1cccc(CS(=O)(=O)Cc2nnc(C3CCC3)n2C)c1,-4,0.63
CC1CN(C(C)C)CC1NC(=O)Nc1cccc2c1CN(C)C2=O (stereo not given),-4,0.52
Cc1cccc(CNC(=O)C(C)Oc2ccc3c(c2)C(c2cccc(C)c2)N(C(=O)c2ccccc2)CC3)c1 (stereo not given),3,-0.29
CCc1nc(CN(C[C@H]2CCCCO2)C(C)C)n[nH]1,-16,1.81
CCC(O)(C(=O)Nc1cc(C2CCCO2)n[nH]1)c1cccc(Cl)c1 (stereo not given),-42,4.87
Cc1ccc(OCCC(=O)N[C@@H](CC(C)C)C(=O)N(C)C)c(C)c1,-8,1.62
O=C(c1cc(C2CC2)on1)N1CCCc2ccccc21,-7,0.8
COc1ccc([C@H](C)NC(=O)c2c(C)noc2-c2ccccc2C)cc1,10,-1.49
CC(C)c1cc(NCc2cnc(C(C)(C)C)s2)no1,3,-0.44
Cc1cccc(OCc2nc(CN(CCN3CCOCC3)C(=O)NC(C)C)cs2)c1,-4,0.69
COCCn1nc([C@H]2CCCN(C(=O)c3ccc(F)cc3Cl)C2)n(C2CC2)c1=O,-4,0.49
O=C(c1ccoc1)N1CCC[C@@H]1Cn1nccn1,-10,1.82
COc1ccc(CN2C(=O)COC[C@H]2C(=O)NC2CCCCCC2)c(OC)c1,-5,0.8
O=C(NCCCC1CCCC1)c1cc2n(n1)C[C@@H](O)CNC2=O,-10,1.01
Cc1nc(C)c(CNC(=O)c2cncc(Cl)c2C)s1,-13,1.8
Cc1cccc(Nc2ncc(Cc3ccccc3C)s2)n1,-13,1.9
Cc1ccc(NC(=O)CCNC(=O)[C@H]2CCOC2)cc1,-10,1.63
Cc1[nH]c2ccccc2c1C1C2C(=O)N(c3cccc(Cl)c3C)C(=O)C2ON1c1ccccc1 (stereo not given),-5,0.81
O=C(Nc1nnc(C(F)(F)F)[nH]1)[C@H]1CC(=O)N(c2ccccc2)C1,0,-0.01
CCCNC(=O)CCc1c(-c2ccc(Cl)cc2)nc2ccc(-c3cc4ccccc4s3)cn12,-16,1.9

Structure (SMILES),% Inhibition [%],Z score
O=C(Nc1ccc(Oc2ccccc2)cc1)C1CCN(C(=O)c2ccc(Cl)cc2Cl)CC1,-1,0.19
Cc1cccc(CNc2cnn(-c3nccs3)c2)c1,-8,0.74
CCNC(=NCc1ccc(Br)cc1OC)NCC,1,-0.16
Cc1cc2c(cn1)/C(=C\c1ccccc1)c1ccccc1-2,-8,0.75
CC(=O)NC(=NOCc1ccc(Br)cc1)c1nonc1NC(C)=O,11,-1.39
O=C(CCN1CCCO1)N1CCC[C@H](Nc2cccc(F)c2)C1,9,-1.2
CC(C)C(CNC1CCOC1)ONC(=O)OC(C)(C)C (stereo not given),-17,2.24
C/C=C/CC(=O)N1CCc2c(c(C(=O)O)nn2CCCc2ccccc2)C1,-7,1.43
CCc1cc(C(=O)N2CCCC[C@@H]2C)c2c(C)noc2n1,2,-0.28
CC(C)CN(CC(C)C)C(=O)NCc1cccnc1,3,-0.53
Cn1nnc2c(N3CCN(S(=O)(=O)Cc4ccccc4)CC3)ncnc21,-6,0.93
CN(C)S(=O)(=O)c1ccc(N2CCCC2)c(C(=O)N2CCN(Cc3ccc(Cl)s3)CC2)c1,0,-0.01
Cc1nc(CN(CCO)c2cccc(F)c2)no1,-2,0.3
CC(NC(=O)C1CCn2ccnc2C1)C(O)Cc1ccccc1 (stereo not given),-16,1.44
Cc1cnc(-c2cccc(NC(=O)c3c(C)noc3C)c2)o1,-6,1.21
CCc1noc(C(C)NC2CCCCCC2C(N)=O)n1 (stereo not given),-6,0.68
CCn1cc(NC(=O)NCc2nc(Cc3cccs3)no2)nn1,-3,0.6
Cn1nccc1S(=O)(=O)N1CCC[C@H](c2c[nH]c3ncccc23)C1,3,-0.3
COCCN1CC(=O)N[C@H]2CN(Cc3nc(C(C)C)no3)C[C@@H]2OCc2cccc(c2)Oc2cc(ccc2OC)CCC1=O,6,-1.1
O=C(C1CCC1)N1CC[C@@]2(CCCN(CC3CCCCC3)C2=O)C1,1,-0.12
O=C(c1c(F)cccc1F)N1CCN(c2nc3nccc(-c4cccc(C(F)(F)F)c4)n3n2)CC1,-1,0.14
Cc1cc(NC(=O)N(Cc2ccccc2)Cc2scnc2C)n(C(C)C)n1,-4,0.57

Structure (SMILES),% Inhibition [%],Z score
Cc1nc(N2CCCC2)nc(C)c1NC(=O)c1cccnc1,-3,0.45
Cc1ccn(-c2cc(NCCNC(=O)c3cccs3)ncn2)n1,0,-0.06
COc1ccc(OCC(=O)Nc2cc(C)nn2-c2nc3c(cnn3-c3cccc(C)c3C)c(=O)[nH]2)cc1,-6,1.15
Cc1ccc(-c2nn(-c3cccc(F)c3)cc2CNCCc2ccncc2)o1,-5,0.82
CCc1nc(C#N)c(NCCc2ccc(OC)c(OC)c2)o1,-5,0.66
CCc1nnc(-c2[nH]c(C)c(S(=O)(=O)Nc3cccc(Cl)c3)c2C)o1,-5,0.66
COCCN1C[C@@H](Cc2ccc3c(=O)[nH]ccc3c2)CC1=O,-21,2.65
CCN1CCCC[C@@H]1CNCc1ccnn1-c1ccccc1,-5,0.8
C=CCNC(=O)c1cn2c3c(cc(Br)cc3c1=O)CC2,-7,1.32
O=C(Nc1cccc(C#Cc2ccccn2)c1)c1ccco1,-6,0.85
Cc1cccc(C)c1C(=O)NCc1nc(CN2CCCCC2)no1,-9,1.23
Cc1nc(N2CCc3[nH]nc(C(=O)N(C)C)c3C2)c2sccc2n1,2,-0.36
COc1nc(NC(=O)c2cc(C)cc(F)c2)n[nH]1,-20,1.78
COc1ccc(-c2cc(C(=O)NCCN3CCN(c4ccccc4)CC3)c3cc(C(C)C)ccc3n2)cc1,3,-0.39
Cc1ncccc1N[C@@H](C)CS(C)(=O)=O,-14,1.93
CC(C)c1csc(CCNC(=O)CCN2C[C@@H](C)O[C@@H](C)C2)n1,-5,0.93
CC(C)C[C@H](NC(=O)NCCc1ncnn1C)C(N)=O,4,-0.69
N#Cc1cncc(NCC2CCCCCC2)n1,-16,1.97
O=C(O)[C@@H](c1ccccc1F)N1CCC(c2nc(-c3ccccc3)no2)CC1,-19,2.05
C[C@@H](C(=O)Nc1cccc(-c2nnn(C)n2)c1)n1cnc2ccccc2c1=O,-10,1.29
Cc1cc2c(c(=O)n(-c3ccccc3)c(=O)n2CC(=O)Nc2ccc(F)c(Cl)c2)n1C,-22,2.01
Cc1cc(N2CCS(=O)(=O)[C@@H](C)C2)c2cccc(F)c2n1,10,-1.14

Structure (SMILES),% Inhibition [%],Z score
O=C(Nc1csnc1-c1ccccc1)c1ccc(F)cc1Cl,-6,0.6
O=c1c2ccccc2nnn1CCOc1cccc(Cl)c1,-6,1.11
O=S(=O)(c1cncc(F)c1)N1CCC(F)(c2ccc(Cl)cc2)CC1,-7,0.93
COc1cccc2c1OC[C@@H](C(=O)N1CCC(Nc3ccccn3)CC1)C2,-5,0.59
Cc1ccc(Cl)cc1NC(=O)N1CC[C@H](n2cnnc2C2CC2)C1,-13,1.95
O=C(Nc1nc2c(s1)CCCC2)[C@@H]1CCCc2ccccc21,-6,0.79
CCOc1cc(CNCCCn2ccnc2)ccc1OCc1ccccc1,46,-2.57
CCOc1ccc(NC(=O)Cn2cnc3nc(N(CC)CC)sc3c2=O)cc1,-3,0.57
COc1cccc(C(=O)N2CC(CN3CCN(c4ccccc4)CC3)C(c3cccc(F)c3)C2)c1 (stereo not given),-2,0.32
COc1ccccc1C1CCC(C)CN1Cc1nnc(C(C)C)o1 (stereo not given),-5,0.51
CC1CC(=O)CCC1c1nc(-c2ccncc2)no1 (stereo not given),-3,0.47
C=CCN1CCN(C(=O)C(C)Oc2ccc3c(c2)C(c2ccc(F)cc2)N(C(=O)CC(C)C)CC3)CC1 (stereo not given),-9,1.18
O=C(c1cnccn1)N1CCC[C@H]1c1ccc(Cl)c(Cl)c1,-17,2.55
O=C(NCc1ccc(-n2cncn2)nc1)c1ccc(O)nc1,-1,0.21
COc1cccc(CN2CCC(c3ncc(C)n3CCO)CC2)n1,18,-3.02
FC(F)Oc1ccc(-c2ccc(NC[C@H]3CCCO3)nc2)cn1,-7,1.35
CN(Cc1ccc(-c2cc[nH]n2)s1)CC1CCOCC1,-8,0.88
C(#CCN1CCOCC1)COc1ccc2ccccc2c1,-17,1.83
Cc1csc(CNC2CCN(Cc3ccccc3)C(C)C2)n1 (stereo not given),-5,0.74
